From the supplement of paper PMC4967469
IC50 is the fitted dose that halves viability relative to control wells, and lower means more sensitive; fits outside the tested doses are given as limits. AUC is the area under the same curve over the 256-fold range up to the top dose, as a fraction: 1 means no effect, lower means more sensitive. For some assays here: An inferred top dose is not printed in the source and was worked back from the curve model. For some assays here: An entry number marks a drug with two screens in the source, which often give different values.

Assays:
Assay in all cases: Viability of human cancer cell lines after 72 h of drug (GDSC screen)
AZD-0530 = compound: CN1CCN(CCOc2cc(OC3CCOCC3)c3c(Nc4c(Cl)ccc5c4OCO5)ncnc3c2)CC1 [AZD-0530]; conditions: top dose 2 µM
Description: (§1)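 Human cancer cell lines in 384-well plates, medium with 10% serum, drug for 72 h over a 256-fold dose range (nine 2-fold or five 4-fold steps up to the top dose). Adherent lines were fixed and stained with the nucleic acid dye Syto60, suspension lines read with resazurin; signal relative to control wells, capped at 0 and 100%. One two-parameter sigmoid per drug and line, fitted in a mixed model over all curves with the slope shared within a line.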

Epothilone B = compound: C/C(=C\c1csc(C)n1)[C@@H]1C[C@@H]2O[C@]2(C)CCC[C@H](C)[C@H](O)[C@@H](C)C(=O)C(C)(C)[C@@H](O)CC(=O)O1 [Epothilone B]; conditions: top dose 0.032 µM; top dose inferred
Description: as §1

PHA-793887 = compound: CC(C)CC(=O)Nc1n[nH]c2c1CN(C(=O)C1CCN(C)CC1)C2(C)C [PHA-793887]; conditions: top dose 10.24 µM
Description: as §1

PLX4720 = compound: CCCS(=O)(=O)Nc1ccc(F)c(C(=O)c2c[nH]c3ncc(Cl)cc23)c1F [PLX4720]; conditions: top dose 10 µM
Description: as §1

Y-39983 = compound: C[C@@H](N)c1ccc(C(=O)Nc2ccnc3[nH]ccc23)cc1 [Y-39983]; conditions: top dose 20 µM; top dose inferred
Description: as §1

TPCA-1 = compound: NC(=O)Nc1sc(-c2ccc(F)cc2)cc1C(N)=O [TPCA-1]; conditions: top dose 20 µM
Description: as §1

Pyrimethamine = compound: CCc1nc(N)nc(N)c1-c1ccc(Cl)cc1 [Pyrimethamine]; conditions: top dose 20 µM; top dose inferred
Description: as §1

[1] = screen: GDSC drug entry 1371, top dose inferred

| Cell Line | AUC (AZD-0530) | IC50 (AZD-0530) | AUC (Epothilone B) | IC50 (Epothilone B) | AUC (PHA-793887) | IC50 (PHA-793887) | AUC (PLX4720; screen: GDSC drug entry 1036) | IC50 (PLX4720; screen: GDSC drug entry 1036) | AUC (PLX4720; [1]) | IC50 (PLX4720; [1]) | AUC (Y-39983) | IC50 (Y-39983) | AUC (TPCA-1) | IC50 (TPCA-1) | AUC (Pyrimethamine) | IC50 (Pyrimethamine) |
| --- | --- | --- | --- | --- | --- | --- | --- | --- | --- | --- | --- | --- | --- | --- | --- | --- |
| KLE (endometrium, adherent) | 0.887 | > 2 µM | 0.836 | > 0.032 µM | 0.923 | > 10.2 µM | 0.961 | > 10 µM | 0.934 | > 10 µM | 0.935 | > 20 µM | 0.789 | 15 µM | – | – |
| KOPN-8 (B-cell leukaemia, suspension) | 0.969 | > 2 µM | 0.702 | 0.00671 µM | 0.296 | 0.188 µM | 0.977 | > 10 µM | 0.983 | > 10 µM | 0.923 | > 20 µM | 0.555 | 1.73 µM | – | – |
| KP-N-RT-BM-1 (neuroblastoma, semi-adherent) | 0.961 | > 2 µM | – | – | – | – | – | – | – | – | – | – | – | – | – | – |
| MOLT-13 (T-cell lymphoblastic leukaemia, suspension) | 0.989 | > 2 µM | – | – | 0.334 | 0.236 µM | 0.989 | > 10 µM | 0.983 | > 10 µM | 0.827 | 10.3 µM | 0.754 | 6.02 µM | 0.928 | > 20 µM |
| NB12 (neuroblastoma, adherent) | – | – | 0.87 | > 0.032 µM | 0.944 | > 10.2 µM | 0.972 | > 10 µM | 0.954 | > 10 µM | 0.967 | > 20 µM | 0.869 | > 20 µM | 0.977 | > 20 µM |
| NB17 (neuroblastoma, adherent) | 0.957 | > 2 µM | – | – | 0.722 | 3.04 µM | 0.984 | > 10 µM | 0.975 | > 10 µM | 0.908 | > 20 µM | 0.842 | 17.3 µM | 0.979 | > 20 µM |
| NCI-H23 (lung adenocarcinoma, adherent) | – | – | 0.866 | 0.028 µM | 0.958 | > 10.2 µM | 0.988 | > 10 µM | 0.986 | > 10 µM | 0.976 | > 20 µM | 0.923 | > 20 µM | 0.745 | 6.25 µM |
| NCI-H128 (small cell lung carcinoma, suspension) | 0.975 | > 2 µM | – | – | – | – | – | – | – | – | – | – | – | – | 0.896 | > 20 µM |
| NCI-H2227 (small cell lung carcinoma, semi-adherent) | – | – | 0.963 | > 0.032 µM | 0.726 | 3.1 µM | 0.962 | > 10 µM | 0.929 | > 10 µM | 0.785 | 9.78 µM | 0.57 | 2 µM | 0.975 | > 20 µM |
| NK-92MI (lymphoid neoplasm, suspension) | 0.94 | > 2 µM | 0.722 | 0.00807 µM | – | – | – | – | – | – | – | – | – | – | 0.959 | > 20 µM |
| RC-K8 (B-cell lymphoma, suspension) | – | – | 0.951 | > 0.032 µM | 0.956 | > 10.2 µM | 0.972 | > 10 µM | 0.972 | > 10 µM | 0.991 | > 20 µM | 0.947 | > 20 µM | 0.962 | > 20 µM |
| RL95-2 (endometrium, adherent) | 0.865 | 1.74 µM | – | – | 0.936 | > 10.2 µM | – | – | 0.97 | > 10 µM | 0.917 | > 20 µM | 0.664 | 3.56 µM | 0.844 | 14.1 µM |
| SCC-15 (head and neck, adherent) | 0.978 | > 2 µM | 0.666 | 0.00681 µM | 0.91 | > 10.2 µM | 0.923 | > 10 µM | 0.911 | > 10 µM | 0.965 | > 20 µM | 0.866 | > 20 µM | – | – |
| SCH (stomach, adherent) | – | – | 0.982 | > 0.032 µM | 0.879 | > 10.2 µM | 0.911 | > 10 µM | 0.893 | > 10 µM | 0.988 | > 20 µM | 0.988 | > 20 µM | 0.985 | > 20 µM |
| SKM-1 (haematopoietic neoplasm, suspension) | 0.91 | > 2 µM | – | – | – | – | 0.957 | > 10 µM | 0.982 | > 10 µM | – | – | – | – | 0.95 | > 20 µM |
| SNU-C2B (large intestine, adherent) | 0.883 | > 2 µM | 0.627 | 0.00501 µM | 0.735 | 3.79 µM | 0.972 | > 10 µM | 0.97 | > 10 µM | 0.911 | > 20 µM | 0.926 | > 20 µM | – | – |
| TGBC24TKB (biliary tract, adherent) | 0.834 | 1.19 µM | 0.58 | 0.00327 µM | 0.989 | > 10.2 µM | – | – | 0.989 | > 10 µM | 0.975 | > 20 µM | 0.925 | > 20 µM | – | – |
| TK (B-cell lymphoma, suspension) | – | – | 0.619 | 0.00412 µM | 0.941 | > 10.2 µM | 0.96 | > 10 µM | 0.977 | > 10 µM | 0.89 | 19.5 µM | 0.74 | 5.62 µM | 0.65 | 3.12 µM |
| YAPC (pancreas, adherent) | – | – | 0.957 | > 0.032 µM | 0.931 | > 10.2 µM | 0.974 | > 10 µM | 0.954 | > 10 µM | 0.967 | > 20 µM | 0.893 | > 20 µM | – | – |
| YKG-1 (glioma, adherent) | – | – | 0.452 | 0.00148 µM | 0.661 | 1.8 µM | 0.858 | 8.42 µM | 0.985 | > 10 µM | 0.914 | > 20 µM | 0.93 | > 20 µM | – | – |
| huH-1 (liver, adherent) | – | – | 0.813 | 0.0226 µM | 0.984 | > 10.2 µM | 0.935 | > 10 µM | 0.961 | > 10 µM | 0.984 | > 20 µM | 0.984 | > 20 µM | – | – |
